# Assay results: the RNAGym collection of RNA variant scans (doi:10.7554/elife.90254)
# The source gives no read counts; variants with many changes may rest on few reads.
# B1: LINE1-full (parent)
# chain: UACGUAGGUGGUUUUCCCCUGAUAGUGCUAAGGGGGCCUGGAAGUUUGGACUGGGCAGAGCUCAACACAGCGUGGCAAAGUGGCUGUGGCUAGACUGCCUCUCUGGAUUCCUCGUCACUCAGCAGGGCAUCUCUGAGAGAAAUGCC
# Variants of: B1
# Experiment: self-cleavage, relative activity (ratio to wild type); higher = more cleavage; in vitro, sequencing; the parent is a self-cleaving ribozyme
row,Variant,self-cleavage
1,U39A A136U A138G,1.02
2,A107U U108C A138G,1.73
3,A22G U73A A78G,0.17
4,G36U C37U U100C A136U,1.14
5,A57G A59G G80A,0.04
6,U9G A65G U100C,0.15
7,G34A C120U A138G,0.77
8,A24G U85C A124C,0
9,C16U C19U A59G,0.09
10,U20C G93A U102C,0.07
11,U20C A77U A142G,0.82
12,U9A A140G A141G,1.13
13,A6U G36A C61A U115C,0.07
14,C16U A59U G127U,0.91
15,G27A A67G C84U U87A U109C A141G,0.03
16,U52C A77G U132C,1.91
17,A43G A65U A136G,0.25
18,G35A U85C U104C,0
19,U14C A42G U91C C116U,1.1
20,U20C U45C U134C,1.23
21,U12C U15C C113G,2.3

row,Variant,self-cleavage
1,U23C A142G U143A,1.1
2,C3U U100C U130C A136G,1.67
3,U1C U9C U23A U62C G75A,0.08
4,A57U A79G A129G,0.09
5,U13C A22G A77G,1.48
6,A2G U13C U108C A129U,1.11
7,G25A U39C A42G U46C,0.71
8,G44A G83U A121G A136G,1.01
9,C3G U14C A59U U73A A121G A140G,1.36
10,U9A A107G A121G A140G,0.61
11,U13C U45C G105C,2.01
12,C3U G8A U14C U39C A59U G86A G127A,0.11
13,U20C U96A A107G,0.12
14,U12C A77G U102G A142G,1.15
15,C37U U102C U112C,0.96
16,A24G G74A U100C,1.61
17,U9A U12G U13C G25A U47A,0
18,U39C U52C A57G G72A U81A U102C C123U A140G A142G,0.03
19,U13A U96C A121G U132C,0.28
20,A50U A57G G74A,0.32
21,A24G G32A A43G,1.04

row,Variant,self-cleavage
1,U15C U39A A57U U132C,0.69
2,U20A U45G C113A,1.07
3,U20A U62C U87C U132C G137A,0.18
4,U47C A78G A124G,2.63
5,G40A A50G U143C,1.09
6,A50G C111U U115C,1.43
7,A42G U52A A64G A67U,0.05
8,A30U A67C U104A,0.1
9,U15C U23C U62C U91C,0.92
10,U20C A59G A64G,0.16
11,U52C A67G U134C,0.5
12,U26A A67U A140G,0.08
13,C38A A57G C113U U143C,0.77
14,A24G A69U A77G U115A A138U A141G,0.21
15,U46C A57G U73C,1.84
16,A22G G25A C66U,0.14
17,U5C C51G U73A A92G U115C,0.35
18,A2G G72A A142G,0.47
19,U39C U46C U134A,0.82
20,U14C U29A U45C U85C A141G,0.46
21,U15C C17A U91C,0.98

row,Variant,self-cleavage
1,U14C G74A A117G,0.9
2,U26C U47G A79G,1.01
3,U12G G72A A78G C110A A117G,0.96
4,U73C U119C A121U,1.34
5,U14C U26C A42G A59G U108C G127A,0.44
6,U1C G48A A129G,0.31
7,U46A A69G G125A A136G,0.13
8,U5A C37G U47C U119C,0.5
9,U45C G72A C95A,0.04
10,A50G U62C A141G U143C,0.34
11,U45G U96C G125A,0.09
12,U81C U102C U104A,0.71
13,U39A A94G U100C,0.32
14,U9A A65U U91A U96A U132C,0.1
15,U46C G49U U100C A117G,2.24
16,U20A U29C A59G U130C U134G,0
17,U20A U46C U85C U132C U134C,0.16
18,U9C C28A A42G A78U,0.99
19,U39C C113U U143C,0.78
20,U102A U112C U130A A141G,1.75
